Measured values as given in article PMC4336329 (PLoS ONE, 2015).
Hit rate of the full screen: of about 310,000 compounds, about 2,200 (0.71%) showed an effect of 50% or more. Effects have a minus sign here. This is one part of the list.

Target: human ether-à-go-go-related gene (hERG) potassium channel (human, UniProt Q12809)
Assay: primary screen, population patch clamp on CHO cells stably expressing hERG

Sequence of human ether-à-go-go-related gene (hERG) potassium channel (Q12809 whole entry, looked up): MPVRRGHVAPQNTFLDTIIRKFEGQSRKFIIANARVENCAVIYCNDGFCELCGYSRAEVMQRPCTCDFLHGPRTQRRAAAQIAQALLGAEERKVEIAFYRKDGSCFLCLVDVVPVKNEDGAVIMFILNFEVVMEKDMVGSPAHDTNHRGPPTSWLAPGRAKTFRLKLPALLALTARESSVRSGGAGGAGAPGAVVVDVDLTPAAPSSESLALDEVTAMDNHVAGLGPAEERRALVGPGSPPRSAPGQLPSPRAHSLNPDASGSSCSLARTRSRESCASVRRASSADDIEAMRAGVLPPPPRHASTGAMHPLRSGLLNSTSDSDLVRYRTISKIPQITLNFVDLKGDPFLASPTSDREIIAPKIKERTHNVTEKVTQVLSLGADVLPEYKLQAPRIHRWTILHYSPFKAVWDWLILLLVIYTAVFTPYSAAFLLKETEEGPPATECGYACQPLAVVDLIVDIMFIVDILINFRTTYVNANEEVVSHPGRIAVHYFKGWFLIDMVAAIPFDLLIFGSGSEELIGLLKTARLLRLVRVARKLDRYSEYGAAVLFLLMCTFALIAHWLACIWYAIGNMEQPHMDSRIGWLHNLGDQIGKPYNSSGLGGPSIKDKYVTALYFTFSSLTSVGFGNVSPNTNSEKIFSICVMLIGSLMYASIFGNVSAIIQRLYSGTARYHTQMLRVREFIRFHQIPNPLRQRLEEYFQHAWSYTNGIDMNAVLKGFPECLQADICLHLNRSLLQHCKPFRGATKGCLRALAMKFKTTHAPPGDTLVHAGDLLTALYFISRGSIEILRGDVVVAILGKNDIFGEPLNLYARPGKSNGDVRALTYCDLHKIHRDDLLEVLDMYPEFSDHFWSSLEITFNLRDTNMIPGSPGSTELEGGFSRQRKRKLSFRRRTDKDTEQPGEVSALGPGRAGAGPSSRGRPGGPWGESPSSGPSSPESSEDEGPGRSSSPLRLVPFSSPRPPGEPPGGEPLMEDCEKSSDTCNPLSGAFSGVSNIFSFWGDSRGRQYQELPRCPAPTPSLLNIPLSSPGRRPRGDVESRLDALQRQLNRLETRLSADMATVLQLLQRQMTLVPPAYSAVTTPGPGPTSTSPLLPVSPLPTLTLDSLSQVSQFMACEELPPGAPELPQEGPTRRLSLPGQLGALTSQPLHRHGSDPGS

| Compound | hERG current change (%, negative = inhibition) at 1uM |
| --- | --- |
| Cc1[nH]c(=O)[nH]c(=O)c1S(=O)(=O)Nc1ccc(F)cc1Cl | 13.9% |
| CNC(=S)NCc1ccc(Cl)cc1 | 6.52% |
| CSC1=NCCN1C(=O)c1c(F)cccc1Cl | -4.5% |
| CCC1CCCCN1S(=O)(=O)c1ccc(C(=O)Nc2nnc(-c3cccs3)o2)cc1 (stereo not drawn) | -4.08% |
| O=C(NCCc1c[nH]c2ccccc12)/C(=C\c1cccnc1)NC(=O)c1ccco1 | -10.8% |
| CCCCn1c(N)c(N(CCC(C)C)C(=O)c2ccccc2C)c(=O)[nH]c1=O | 17.7% |
| CCN(CC)c1ccc(NC(=S)NCC2CCCO2)cc1 (stereo not drawn) | 10.4% |
| O=c1[nH]c(CSc2ncnc3sc(-c4ccccc4)cc23)nc2ccccc12 | 25.3% |
| CCN(CC(=O)Nc1ccccc1C(F)(F)F)C(=O)c1cc(S(=O)(=O)N(C)C)ccc1N1CCCC1 | 10.5% |
| O=C(Nc1ccc(Cl)cc1)N(Cc1nnc2n1CCCCC2)c1ccccc1 | 11.5% |
| O=C(c1ccc(Cl)c(Cl)c1)N1CCC(=O)N(C(COCc2cccc(C(F)(F)F)c2)Cc2ccccc2)CC1 (stereo not drawn) | 12.7% |
| CC1CCC2(CC1)NC(=O)N(CC(=O)NCc1cccs1)C2=O (stereo not drawn) | 7.72% |
| O=C(Nc1ccc2oc(-c3ccncc3)nc2c1)c1ccc2c(c1)OCCO2 | 6.85% |
| O=C(NCc1ccco1)c1cccc(N2CCCC2=O)c1 | 0.979% |
| CCOC(=O)[C@@H](CCc1ccccc1)N[C@H](C)C(=O)N1[C@H](C(=O)O)C[C@@H]2CCC[C@@H]21 | 20.8% |
| Cn1c(=O)[nH]c(=O)c2c1nc(SCCC(=O)O)n2Cc1cccc(Br)c1 | 8.44% |
| CCOC(=O)N1CCC(NCCNC(=O)c2cccc(F)c2)CC1.Cl | 14.4% |
| CC(=O)Nc1cccc(Oc2ccc([N+](=O)[O-])cc2Cl)c1 | 10.2% |
| O=c1[nH]c(NCCO)nc2c1C1(CCCC1)Cc1ccccc1-2 | 10.1% |
| CC(=O)Nc1ccc2[nH]c(C)cc(=O)c2c1 | 5.46% |
| O=C(CCS(=O)(=O)c1ccccc1)OCC(=O)N1CCN(S(=O)(=O)c2ccc(Cl)cc2)CC1 | 8.42% |
| Cc1ccnc(N/C=C(\C#N)c2nc(-c3cccc(Br)c3)cs2)c1 | 9.63% |
| c1ccc(SCCOCCn2cncn2)cc1 | 15.3% |

| Compound | hERG current change (%, negative = inhibition) at 1uM |
| --- | --- |
| COc1cccc(CN(C)Cc2nc(Cc3ccccc3Cl)no2)c1 | 17% |
| Cn1c(SCc2c(Cl)cccc2Cl)nnc1-c1ccc2nonc2c1 | -4.34% |
| Cc1ccc(S(=O)(=O)N(CC(=O)NCCSC2CCCCC2)c2ccccc2F)cc1 | 14.9% |
| Clc1ccc(-n2nnnc2-c2ccno2)cc1 | 11.6% |
| CCCCOc1ccc(Cl)cc1CSc1n[nH]c(C)n1 | -0.253% |
| Nn1c(Cc2cccc3ccccc23)nnc1SCC(=O)N1CC(=O)Nc2ccccc21 | 6.51% |
| Cc1ccc(C2=NN(C(=O)CSc3nc(N)cc(N)n3)C(c3ccco3)C2)cc1 (stereo not drawn) | 2.97% |
| COc1cccc(NC(=O)NNS(=O)(=O)c2ccc(OC)cc2OC)c1 | 8.7% |
| O=C1NC(=O)N(c2ccc3c(c2)OCO3)C(=O)/C1=C\c1ccsc1 | 6.7% |
| C=CCn1c(-c2ccc(OC)cc2)nc2nc3ccccc3nc21 | 18.5% |
| COc1ccc(NC(=S)N2CCN(S(=O)(=O)c3ccccc3)CC2)cc1 | 8.69% |
| CC1(C(=O)N/N=C/c2ccccc2)CC1(Cl)Cl (stereo not drawn) | 3.03% |
| Cc1ccccc1NC(=O)NC1(C(=O)NCc2ccco2)CCCCC1 | 11.2% |
| CC(c1ccccc1)c1nnc(NC(=O)Nc2ccccc2)s1 (stereo not drawn) | 4.84% |
| COc1ccccc1N1CCN(C(=O)c2cccc(C(=O)N3CCN(c4ccccc4OC)CC3)c2)CC1 | 5.96% |
| Cc1ccc(S(=O)(=O)/N=C(\c2ccc(F)cc2)n2c(C)nc3ccccc32)cc1 | 9.35% |
| COC(=O)c1ccc2c(=O)n(CCCCCC(=O)NCc3ccc4c(c3)OCO4)c(=O)[nH]c2c1 | -37.5% |
| COc1ccnc2c1c(=O)n(Cc1ccc(Cl)cc1Cl)c(=O)n2C | 11.2% |
| Cc1c(S(=O)(=O)NC2CCCCCC2)c(=O)n(C)c(=O)n1C | -0.188% |
| CCn1cc(C(=O)NCC2CCCO2)c2cc(OC)c(OC)cc2c1=O (stereo not drawn) | 14.8% |
| O=[N+]([O-])c1ccc(N2CCNCC2)cc1Sc1nc2ccccc2[nH]1 | -5.29% |
| Cc1ccc(NC(=O)c2cc3c(=O)oc4ccc(C)cc4c3s2)nc1 | 11.2% |
| O=C(NCc1ccc(F)cc1)c1c2c(nc3ccccc13)CCC2 | -3.74% |

| Compound | hERG current change (%, negative = inhibition) at 1uM |
| --- | --- |
| CC1CCC2(CC1)NC(=O)N(NC(=O)CSc1nnc(NC3CC3)s1)C2=O (stereo not drawn) | 3.44% |
| COc1ccc(CC(=O)Nc2ccccc2-c2ccccc2)cc1OC | 14.5% |
| Cl.Clc1cccc(CNCCCSc2ncccn2)c1Cl | 16.4% |
| O=C(Nc1nnc(C2CC2)s1)C1Cc2ccccc2CN1C(=O)c1ccco1 (stereo not drawn) | 5.83% |
| O=C(/C=C/c1ccccc1)NC(=S)Nc1ccc(N2CCOCC2)c(Cl)c1 | 12.1% |
| CCC(C)C(NC(=O)C1CCC(C)CC1)C(=O)NC(C(=O)OC)C(C)C (stereo not drawn) | 8.78% |
| Cn1c(-c2ccccc2)c(CCO)c2ccccc21 | 13% |
| Cc1ccc(-c2nnn(CC(=O)N(Cc3cccs3)C(C(=O)NC(C)(C)C)c3ccco3)n2)o1 (stereo not drawn) | 17.7% |
| Cc1ccc(S(=O)(=O)N2CCOCC2)cc1NC(=O)CSc1ccccn1 | 3.83% |
| CCOC(=O)N1CCN(S(=O)(=O)c2ccc3c(c2)CC(C)N3C(C)=O)CC1 (stereo not drawn) | 19.9% |
| CCOc1ccc(S(=O)(=O)N2CCN(C(=O)C3CSC4(C)CCC(=O)N34)CC2)cc1 (stereo not drawn) | 13.2% |
| Cn1cnc([N+](=O)[O-])c1Oc1cccc2ccccc12 | 11.8% |
| CCn1c(O)c(C=NCc2cccs2)c(=O)[nH]c1=O | 3.5% |
| COc1cccc(CNn2c(-c3cccc(C)c3)nc3ccccc3c2=O)c1 | 6.03% |
| O=C(Nc1cccc([N+](=O)[O-])c1)c1[nH]ncc1Cl | 1.76% |
| CC(=O)N1CCc2c(sc(NC(=O)c3ccc(S(=O)(=O)N(C)C)cc3)c2C#N)C1 | 10.1% |
| O=C(O)c1ccc(N2CCS(=O)(=O)CC2)cc1 | 15.8% |
| Cc1ccc(S(=O)(=O)N[C@@H](CCCCN)C(=O)CCl)cc1.Cl | 9.79% |
| CC(C)c1nc(SCC(=O)Nc2ccc3c(c2)OCCO3)n[nH]1 | 2.27% |
| CCCCOC(=O)c1ccc(Nc2ncnc3nc[nH]c23)cc1 | 12.6% |
| COc1cccc(CN(C(=O)c2ccccc2Cl)C2CCS(=O)(=O)C2)c1 (stereo not drawn) | 12.2% |
| Cc1ccccc1OCC(=O)OCC(=O)NCc1ccco1 | 6.61% |
| COc1ccc(NC(=O)C2CCCN2c2nn3c(=O)cc(C)nc3s2)cc1 (stereo not drawn) | 9.92% |

| Compound | hERG current change (%, negative = inhibition) at 1uM |
| --- | --- |
| CC1(C)CC(=O)c2c(nc3ccccc3c2N)C1 | 3.55% |
| COc1ccc2ncn(-c3ccccc3)c2c1 | 1.48% |
| CCN(CC)C1CCN(C(=O)c2ccc(OC3CCN(Cc4ccccn4)CC3)cc2)C1 (stereo not drawn) | 6.55% |
| Cc1ccccc1NC(=O)C1CC(=O)N(Cc2ccccc2)C1 (stereo not drawn) | -0.411% |
| CCC(C)NC(=O)C1CCN(C(=O)c2ccccc2)CC1 (stereo not drawn) | 12.3% |
| O=C(Nc1ccccc1)N(O)c1ccc(Cl)cc1 | -1.26% |
| NS(=O)(=O)c1ccc(Nc2nc(-c3cccnc3)cs2)cc1 | 2.34% |
| COc1ccc(/C=C2\SC(=O)N=C2N)cc1OC | 16.4% |
| CC1CC(C)(C)CC2(C1)NC(=O)N(CC(=O)NCCc1c[nH]c3ccccc13)C2=O (stereo not drawn) | 3.57% |
| CCCC[n+]1ccn(C2=C([O-])c3ccccc3C(=O)/C2=N\S(=O)(=O)c2ccc(Br)cc2)c1 | -21.4% |
| Cc1cc2oc(C(=O)NC3CCS(=O)(=O)C3)cc(=O)c2cc1C (stereo not drawn) | 14.9% |
| COc1cccc(/C=N/NC(=O)c2ccc(COc3ccc(Cl)cc3Cl)o2)c1 | 5.91% |
| CC(C)(C)S(=O)(=O)c1ccc2nc3c(n2c1)CCCC3 | 9.37% |
| COc1cc(OC)cc(C(=O)NC(C(=O)N2CCc3ccccc3C2)C(C)C)c1 (stereo not drawn) | 15.4% |
| CC(C[N+](C)(C)C)OC(=O)C1(c2ccccc2)CCCC1 (stereo not drawn) | 20.8% |
| COCCCNC(=O)c1ccc([N+](=O)[O-])cc1 | 6.02% |
| CCCCCCC(=O)NN1CCN(C)CC1 | 16.2% |
| Cc1ccc2c(c1)N(C(=O)CCC(=O)NCc1cccc(F)c1)CCO2 | 9.09% |
| Cn1c(=O)cc(SCC(=O)NCCCN2CCOCC2)c2ccc(Cl)cc21 | 14.7% |
| CNC(=O)c1cc2c(ccc3ccccc32)oc1=N | 0.583% |
| CCN(CC)C(=O)C1CCCN(C(=O)c2oc3ccc(C)cc3c2C)C1 (stereo not drawn) | 5.71% |
